{"source": "PubChem BioAssay AID1030", "about": "(National Center for Advancing Translational Sciences (NCATS), 2008)", "note": "“And” between values parts separate entries of the source, which are not always exact repeats. Equal values may be shown once. Out of some 220,000 compounds screened, about 16,000 (7.3%) were called active. This list was built around the results that the source calls inconclusive (neither active nor inactive); the mix of calls is not that of the screen. Calls follow the shape of the dose curve; as a rule, active = well fitted inhibition curve with a large enough effect (not every such curve was filed as active); inconclusive = small, poorly fitted or top-dose-only effect, or another doubt; inactive = no such curve, though single readings can be large or run the other way. A potency beside an inconclusive call is a rough fit, not a confirmed value. Potency is read from the fitted curve at half-maximal effect; tags tell the direction and shape of the fitted curve.", "data": [{"target": "Aldehyde dehydrogenase 1A1 (Homo sapiens) (UniProt P00352)", "sequence (P00352 whole entry, looked up)": "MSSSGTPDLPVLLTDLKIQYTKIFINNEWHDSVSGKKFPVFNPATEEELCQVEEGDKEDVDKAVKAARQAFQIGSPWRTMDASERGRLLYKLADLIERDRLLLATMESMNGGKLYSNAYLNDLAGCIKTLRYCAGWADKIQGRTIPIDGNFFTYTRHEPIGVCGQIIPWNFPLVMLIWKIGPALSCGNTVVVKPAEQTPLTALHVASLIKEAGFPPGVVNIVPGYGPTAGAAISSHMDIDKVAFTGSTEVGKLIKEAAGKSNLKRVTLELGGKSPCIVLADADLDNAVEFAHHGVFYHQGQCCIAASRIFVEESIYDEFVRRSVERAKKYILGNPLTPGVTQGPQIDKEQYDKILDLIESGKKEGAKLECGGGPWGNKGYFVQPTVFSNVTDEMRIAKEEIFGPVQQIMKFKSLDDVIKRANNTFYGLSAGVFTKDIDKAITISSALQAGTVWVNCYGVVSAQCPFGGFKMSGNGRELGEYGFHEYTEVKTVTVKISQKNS", "test": "qHTS Assay for Inhibitors of Aldehyde Dehydrogenase 1 (ALDH1A1)", "conditions": "Purified ALDH1A1, NADH fluorescence, propionaldehyde substrate; series mostly up to 75.3 µM", "values": [{"compound": "Cc1nn(-c2ccccn2)c2nc(-c3cccs3)cc(C(=O)N3CCOCC3)c12", "Potency": "inconclusive: 28.2 µM [inhibitor, partial curve]"}, {"compound": "O=C(Cn1c(=O)[nH]c2ccccc2c1=O)N1CCN(c2cccc(Cl)c2)CC1", "Potency": "inactive"}, {"compound": "Cc1cc(N)nc2nc(C(F)(F)F)nn12", "Potency": "inactive"}, {"compound": "CC1=CC2=NC(=O)/C(=C\\c3cc(C)n(-c4ccccc4F)c3C)C(=N)N2O1", "Potency": "inconclusive: 39.8 µM [inhibitor, single point]"}, {"compound": "CCSc1nnc(NC(=O)C(C(F)(F)F)C(F)(F)F)s1", "Potency": "active: 17.8 µM"}, {"compound": "COc1ccc(C(=O)COC(=O)c2ccccc2NS(=O)(=O)c2ccc(O)c([N+](=O)[O-])c2)cc1", "Potency": "inconclusive: 25.1 µM [inhibitor, single point]"}, {"compound": "CCC(C)(C)n1nnnc1CN(Cc1cccs1)Cc1cc2cc(OC)ccc2[nH]c1=O", "Potency": "inconclusive: 15.8 µM [inhibitor, partial curve]"}, {"compound": "CNC(=O)c1[nH]cnc1C(=O)Nc1ccccn1", "Potency": "inconclusive: 44.7 µM [inhibitor, single point]"}, {"compound": "COc1ccc(N=c2oc3c(OC)cccc3cc2C(=O)NCc2ccco2)c(OC)c1", "Potency": "inconclusive: 3.55 µM [inhibitor, partial curve]"}, {"compound": "O=C1N/C(=N\\N=C\\c2cccs2)SC1Cc1ccc(Cl)c(Cl)c1", "note": "(stereo not drawn)", "Potency": "inactive"}, {"compound": "COC(=O)/C(=C/c1ccco1)NC(=O)c1ccccc1", "Potency": "inactive"}, {"compound": "Cc1ccc(-c2nc3c(c(=O)c4ccccc4n3C)c(=O)n2Cc2ccco2)cc1", "Potency": "inconclusive: 14.1 µM [inhibitor, partial curve, poor fit]"}, {"compound": "CCCCCn1cnc2c(sc3nc4c(cc32)CSC(C)(C)C4)c1=O", "Potency": "active: 2.82 µM"}, {"compound": "O=C(CCN1C(=O)c2ccccc2C1=O)NC(=S)Nc1cccc(Cl)c1", "Potency": "inconclusive: 17.8 µM [inhibitor, partial curve]"}, {"compound": "COC(=O)c1ccccc1NC(=O)NCCc1ccccc1OC", "Potency": "inconclusive: 22.4 µM [inhibitor, partial curve]"}, {"compound": "O=C(CSc1ccc(Cl)cc1)Nc1cccc(-c2nnc(-c3ccco3)o2)c1", "Potency": "inactive"}, {"compound": "CCOC(=O)N1CCN(c2cc(=O)n(C3CCCCC3)c(=O)[nH]2)CC1", "Potency": "inconclusive: 17.8 µM [inhibitor, partial curve]"}, {"compound": "COc1ccc(Cc2nnc(SCC(=O)NCCc3ccccc3)o2)cc1", "Potency": "inconclusive: 28.2 µM [inhibitor, single point]"}, {"compound": "O=C(CSc1nc2cc(Cl)ccc2o1)NCCc1ccccc1", "Potency": "inactive"}, {"compound": "CN(C)C(=O)CCc1nc(-c2ccc(C(C)(C)C)cc2)no1", "Potency": "inconclusive: 25.1 µM [inhibitor, partial curve]"}, {"compound": "Cc1cc(/C(N)=N/OC(=O)c2ccccc2Cl)no1", "Potency": "inactive"}, {"compound": "O=C(Cc1cnc2ncnn2c1)N1CCc2c([nH]c3ccccc23)C1c1ccccn1", "note": "(stereo not drawn)", "Potency": "inconclusive: 15.8 µM [inhibitor, partial curve]"}, {"compound": "Nc1cc(-c2ccc(Cl)cc2)nn1-c1ccccc1", "Potency": "inactive"}, {"compound": "Clc1ccc(C2[C@H]3CN(Cc4cccnc4)[C@H](c4ccccc4)C34CC2(c2ccccc2)C4)cn1", "note": "(stereo partly drawn)", "Potency": "inconclusive: 39.8 µM [inhibitor, single point]"}, {"compound": "CN1/C(=C\\C(=O)C(F)F)C(C)(C)c2ccccc21", "Potency": "inconclusive: 37.7 µM [inhibitor, single point]"}, {"compound": "COC(=O)c1ccc(C2CC(=O)Nc3cc(OC)c(OC)c(OC)c32)cc1", "note": "(stereo not drawn)", "Potency": "inconclusive: 37.7 µM [inhibitor, single point]"}, {"compound": "C=CCn1c(-c2cccs2)nc2nc3ccccc3nc21", "Potency": "inconclusive: 31.6 µM [inhibitor, partial curve]"}, {"compound": "O=C(COc1ccc(Br)cc1)N1CCC(c2ccccc2)C1", "note": "(stereo not drawn)", "Potency": "inconclusive: 14.1 µM [inhibitor, single point]"}, {"compound": "COCCn1nnnc1C(c1cc2cccc(C)c2[nH]c1=O)N1CCN(c2ccccc2F)CC1", "note": "(stereo not drawn)", "Potency": "active: 15.8 µM"}, {"compound": "CCN(CC)S(=O)(=O)c1ccc(N2CCCCC2)c(NC(=O)/C=C/c2cc(OC)c(OC)c(OC)c2)c1", "Potency": "active: 12.6 µM"}, {"compound": "COC(=O)c1ccccc1NC(=S)NC(NC(=O)COc1ccccc1)C(Cl)(Cl)Cl", "note": "(stereo not drawn)", "Potency": "inconclusive: 35.5 µM [inhibitor, single point]"}, {"compound": "O=S(=O)(O)O", "Potency": "inactive and inconclusive: 39.8 µM [inhibitor, single point]"}, {"compound": "Cc1nc(-c2ccccn2)sc1C(=O)Nc1ccc(F)cc1", "Potency": "inactive"}, {"compound": "O=C(NCc1ccc2[nH]c3c(c2c1)CCCC3)c1ccc(S(=O)(=O)N2CCCC2)cc1", "Potency": "inconclusive: 25.1 µM [inhibitor, partial curve]"}, {"compound": "Cc1ccc(S(=O)(=O)N2CCN(c3nc4ccccc4nc3-n3nc(C)cc3C)CC2)cc1", "Potency": "inconclusive: 28.2 µM [inhibitor, partial curve]"}, {"compound": "COc1ccc(C(=O)N/C(=C\\c2ccc3c(c2)OCO3)C(=O)NCCc2nc3ccccc3[nH]2)cc1", "Potency": "inconclusive: 12.6 µM [inhibitor, single point]"}, {"compound": "CCn1c2c(c3cc(C(=O)O)ccc31)CCCC2=O", "Potency": "inconclusive: 28.2 µM [inhibitor, partial curve]"}, {"compound": "COc1ccc(C2=NO[C@@H]3[C@@H]4C[C@@H]([C@H]5C(=O)N(c6ccc7c(c6)OCO7)C(=O)[C@@H]45)[C@H]23)cc1OC", "Potency": "inconclusive: 39.8 µM [inhibitor, single point]"}, {"compound": "COC(=O)CSc1nc2c(c(C3CC=CCC3)c1C#N)CCC2", "note": "(stereo not drawn)", "Potency": "inconclusive: 44.7 µM [inhibitor, single point]"}, {"compound": "CCN(C(=S)NCc1ccccc1)c1ccccc1", "Potency": "inactive"}, {"compound": "COc1ccc(/C=c2\\sc3nc(-c4ccccc4)c(-c4ccccc4)n3c2=O)cc1OC", "Potency": "inconclusive: 28.2 µM [inhibitor, single point]"}, {"compound": "C=CCNC(=S)Nc1cccc2ccccc12", "Potency": "inactive"}, {"compound": "COc1ccc(C(=O)NC(=S)Nc2cccc(S(=O)(=O)N3CCOCC3)c2)cc1", "Potency": "inconclusive: 28.2 µM [inhibitor, single point]"}, {"compound": "N=c1oc2c3c4c(cc2cc1C(=O)Nc1ccccc1)CCCN4CCC3", "Potency": "inconclusive: 31.6 µM [inhibitor, single point]"}, {"compound": "COc1cc(/C=N/Nc2nc(N3CCCC3)nc(N3CCCC3)n2)ccc1O", "Potency": "inactive"}, {"compound": "Cc1cc(NC(=O)CSc2nc(C(C)C)nc3sc4c(c23)CCC(C)C4)no1", "note": "(stereo not drawn)", "Potency": "inconclusive: 35.5 µM [inhibitor, single point]"}, {"compound": "O=C1c2cccnc2C(Nc2ccc(Cl)cc2)N1Cc1cccs1", "note": "(stereo not drawn)", "Potency": "active: 4.47 µM"}, {"compound": "Cn1nc(C(=O)Nc2nnc(C3CC3)s2)c2ccccc2c1=O", "Potency": "active: 12.6 µM"}, {"compound": "COc1cc(/C=N/NC(=O)c2cc(-c3ccccc3)n[nH]2)cc(OC)c1OC", "Potency": "inconclusive: 39.8 µM [inhibitor, single point]"}, {"compound": "CCCCCCOc1ccc(N2C(=O)CC(N3CCN(CCN=CC4C(=O)CC(C)(C)CC4=O)CC3)C2=O)cc1", "note": "(stereo not drawn)", "Potency": "inconclusive: 39.8 µM [inhibitor, single point]"}, {"compound": "CCC(Oc1ccccc1)C(=O)NC1CCSC1=O", "note": "(stereo not drawn)", "Potency": "active: 6.31 µM"}, {"compound": "CCCc1c(C(=O)Nc2ccc(F)cc2F)cnn1-c1ccccc1", "Potency": "inconclusive: 12.6 µM [inhibitor, partial curve]"}, {"compound": "CCOC(=O)c1cc(CC)sc1NC(=O)C(c1ccccc1)c1ccccc1", "Potency": "inconclusive: 39.8 µM [inhibitor, single point]"}, {"compound": "COc1ccc(NC(=O)COn2nnc3ccc(Cl)cc32)cc1OC", "Potency": "inconclusive: 22.4 µM [inhibitor, single point]"}, {"compound": "COc1ccc(C2NC(=O)N(C)C3=C2C(=O)CC(C)(C)C3)cc1OC", "note": "(stereo not drawn)", "Potency": "inactive"}, {"compound": "CC(C)Cn1c(N2CCN(C(=O)c3cccs3)CC2)nc2ccccc21", "Potency": "inconclusive: 17.8 µM [inhibitor, partial curve]"}, {"compound": "CC1CCCN(c2ccc(C(=O)NCc3cccs3)cn2)C1", "note": "(stereo not drawn)", "Potency": "inconclusive: 39.8 µM [inhibitor, single point]"}, {"compound": "Cc1cc(NC(=O)c2cnn3c(C(F)F)cc(-c4ccccc4)nc23)no1", "Potency": "inconclusive: 17.8 µM [inhibitor, partial curve, poor fit]"}, {"compound": "Cc1ccc(N2C(=O)C3N=NN(CC(=O)N4N=C(c5ccccc5)CC4c4ccccc4)C3C2=O)cc1", "note": "(stereo not drawn)", "Potency": "inconclusive: 39.8 µM [inhibitor, single point]"}, {"compound": "Cc1ccccc1C(C(=O)NC1CCCC1)N(C(=O)CNC(=O)c1ccco1)c1cccnc1", "note": "(stereo not drawn)", "Potency": "inactive"}, {"compound": "O=C(c1cc(C2CC2)nc2ccc(Br)cc12)N1N=C(C(F)F)CC1(O)C(F)F", "note": "(stereo not drawn)", "Potency": "inactive"}, {"compound": "O=C(NCCCO)c1cc2ccccc2[nH]1", "Potency": "inconclusive: 39.8 µM [inhibitor, single point]"}, {"compound": "COC(=O)c1ccc(C(/C=C/[C@@H](C)C(=O)NCc2cc(C)n(C)n2)NC(=O)OCc2ccccc2)cc1", "note": "(stereo partly drawn)", "Potency": "inconclusive: 12.6 µM [inhibitor, partial curve]"}, {"compound": "COc1ccc(/C=C/C(=O)NCC(=O)N2CCC(N(C)CCN3CCOCC3)CC2)cc1OC", "Potency": "inconclusive: 39.8 µM [inhibitor, single point]"}, {"compound": "CCSC1=NSC2=NC(=O)/C(=C\\c3coc4ccccc4c3=O)C(=N)N12", "Potency": "inconclusive: 39.8 µM [inhibitor, single point]"}, {"compound": "CC(C)(C)c1ccc(C(=O)NN2C(=O)CSC2=S)cc1", "Potency": "inconclusive: 35.5 µM [inhibitor, single point]"}, {"compound": "COC1(C)CCC2OC2(C)CCC2C1CC2(C)C", "note": "(stereo not drawn)", "Potency": "inconclusive: 8.91 µM [inhibitor, single point]"}, {"compound": "CCN1CCN(CC(=O)N2N=C(c3cccs3)CC2c2ccc(C)cc2)C(=O)C1=O", "note": "(stereo not drawn)", "Potency": "inactive"}]}]}
